In publication PMC4336329 (PLoS ONE, 2015):
The whole screen tested about 310,000 compounds, of which about 2,200 (0.71%) showed an effect of 50% or more. Effects have a minus sign here. Some of the results follow.

What follows are molecules tested against human ether-à-go-go-related gene (hERG) potassium channel (human, UniProt Q12809) (assay: primary screen, population patch clamp on CHO cells stably expressing hERG).
Sequence of human ether-à-go-go-related gene (hERG) potassium channel (Q12809 whole entry, looked up): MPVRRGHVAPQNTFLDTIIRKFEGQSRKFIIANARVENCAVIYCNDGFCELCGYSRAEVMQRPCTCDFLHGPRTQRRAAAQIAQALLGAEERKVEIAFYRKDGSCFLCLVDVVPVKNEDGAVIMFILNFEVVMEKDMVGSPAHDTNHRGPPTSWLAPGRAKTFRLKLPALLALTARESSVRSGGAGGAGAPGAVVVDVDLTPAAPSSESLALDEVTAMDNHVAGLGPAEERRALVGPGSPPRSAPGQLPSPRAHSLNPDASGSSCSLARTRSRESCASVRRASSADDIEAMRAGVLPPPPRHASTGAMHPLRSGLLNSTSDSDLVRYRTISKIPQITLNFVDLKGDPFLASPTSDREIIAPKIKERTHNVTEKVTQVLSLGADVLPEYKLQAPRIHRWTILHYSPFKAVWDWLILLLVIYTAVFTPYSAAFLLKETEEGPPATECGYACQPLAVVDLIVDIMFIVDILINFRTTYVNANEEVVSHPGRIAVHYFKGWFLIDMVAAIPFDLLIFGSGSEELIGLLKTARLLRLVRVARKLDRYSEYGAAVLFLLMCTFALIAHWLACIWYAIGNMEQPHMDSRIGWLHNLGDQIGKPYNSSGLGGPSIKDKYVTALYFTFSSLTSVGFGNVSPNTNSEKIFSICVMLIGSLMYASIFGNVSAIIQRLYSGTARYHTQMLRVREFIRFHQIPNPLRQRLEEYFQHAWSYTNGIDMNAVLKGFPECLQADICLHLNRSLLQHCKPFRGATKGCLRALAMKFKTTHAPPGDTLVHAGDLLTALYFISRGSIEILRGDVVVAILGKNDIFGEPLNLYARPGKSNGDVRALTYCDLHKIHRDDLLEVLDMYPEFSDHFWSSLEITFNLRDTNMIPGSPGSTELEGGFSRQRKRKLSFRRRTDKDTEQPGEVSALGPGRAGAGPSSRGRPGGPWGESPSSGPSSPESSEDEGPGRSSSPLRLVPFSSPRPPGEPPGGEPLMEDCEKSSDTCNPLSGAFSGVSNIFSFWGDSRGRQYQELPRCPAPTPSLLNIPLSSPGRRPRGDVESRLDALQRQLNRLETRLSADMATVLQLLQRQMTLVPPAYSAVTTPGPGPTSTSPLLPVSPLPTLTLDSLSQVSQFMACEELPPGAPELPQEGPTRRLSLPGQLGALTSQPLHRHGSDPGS
For `CCCCc1ccc(NS(=O)(=O)c2cccs2)cc1`, the “hERG current change (%, negative = inhibition) at 1uM” value was 4.98%.
With `COc1ccc(C2(C)NC(=O)N(CC(=O)Nc3cccnc3Cl)C2=O)cc1` (centres unmarked) the “hERG current change (%, negative = inhibition) at 1uM” value was 8.98%.
For `CCOC(=O)c1sc(NC(=O)c2cccc(S(=O)(=O)N(CC)CC)c2)cc1C`, the “hERG current change (%, negative = inhibition) at 1uM” value was 3.61%.
For `COc1ccccc1N(CC(=O)NC1CCCC1)S(=O)(=O)c1ccc(C)cc1`, the “hERG current change (%, negative = inhibition) at 1uM” value was 14.1%.
With `Cc1nn(CCC(=O)NNC(=S)Nc2ccc(F)cc2)c(C)c1Br` the “hERG current change (%, negative = inhibition) at 1uM” value was 9.11%.
In the case of `CS(=O)(=O)c1nc(-c2cccs2)cc(C(F)(F)F)n1`, the “hERG current change (%, negative = inhibition) at 1uM” value was 2.1%.
For `O=C(O)c1cc(-c2ccccc2)n(-c2ccccc2)n1`, the “hERG current change (%, negative = inhibition) at 1uM” value was -1.97%.
In the case of `Cc1ccc(N(C(C)C(=O)O)S(=O)(=O)c2c(C)[nH]c(=O)[nH]c2=O)cc1` (centres unmarked), the “hERG current change (%, negative = inhibition) at 1uM” value was 12.4%.
For `Br.c1ccc(-c2cn3c4c(sc3n2)CCCC4)cc1`, the “hERG current change (%, negative = inhibition) at 1uM” value was 12.7%.
With `COc1ccc(OC)c(-c2cc(C(=O)Nc3c(C)nn(Cc4ccccc4)c3C)no2)c1` the “hERG current change (%, negative = inhibition) at 1uM” value was 4.18%.
For `Cc1ccc(C(=O)N2CCN(Cc3ccc4c(c3)OCO4)CC2)o1`, the “hERG current change (%, negative = inhibition) at 1uM” value was 3.6%.
With `Cc1ccc2c(c1)C(O)(c1c(C)[nH]c3ccccc13)C(=O)N2` (centres unmarked) the “hERG current change (%, negative = inhibition) at 1uM” value was 15.9%.
`O=C(NNC(=O)C12CC3CC(CC(C3)C1)C2)c1ccncc1` was tested, and the “hERG current change (%, negative = inhibition) at 1uM” value was 13.1%.
`CCOC(=O)c1c(C)nc2c(C)cccn12` was tested, and the “hERG current change (%, negative = inhibition) at 1uM” value was 2.81%.
In the case of `O=c1c2cc([N+](=O)[O-])ccc2nc2n1CCCC2`, the “hERG current change (%, negative = inhibition) at 1uM” value was 6.25%.
For `Cc1ccc(N=C2N=C(N)c3ccccc32)cc1C`, the “hERG current change (%, negative = inhibition) at 1uM” value was -2.72%.
With `O=Cc1c(-c2ccc(Cl)cc2)oc2ccc(O)cc12` the “hERG current change (%, negative = inhibition) at 1uM” value was 15.1%.
With `Cc1ccc(S(=O)(=O)NCCc2nnc3ccc(SCC(=O)Nc4nc(C)cs4)nn23)cc1` the “hERG current change (%, negative = inhibition) at 1uM” value was -3.88%.
In the case of `CCOC(=O)c1ccccc1OCc1cc(/C=N/NC(=O)c2ccncc2)ccc1OC`, the “hERG current change (%, negative = inhibition) at 1uM” value was 12.8%.
`COCCn1c(SCCN2CCOCC2)nc2c1c(=O)[nH]c(=O)n2C` was tested, and the “hERG current change (%, negative = inhibition) at 1uM” value was 18.4%.
`Cc1ccsc1C(=CCCN1CCC[C@@H](C(=O)O)C1)c1sccc1C.Cl` was tested, and the “hERG current change (%, negative = inhibition) at 1uM” value was 6.96%.
With `COc1ccc([C@H]2CC(=O)C=C(/C=C/Cc3ccccc3)C2)cc1` the “hERG current change (%, negative = inhibition) at 1uM” value was 12.3%.
`O=C(NCc1ccco1)C(C(=O)c1ccc(F)cc1)n1ccccc1=O` (centres unmarked) was tested, and the “hERG current change (%, negative = inhibition) at 1uM” value was 10.5%.
In the case of `CCOC(=O)C1CCN(c2c(NC3CCCCCCC3)c(=O)c2=O)CC1`, the “hERG current change (%, negative = inhibition) at 1uM” value was 9.35%.
With `Cc1ccc(/C=N/Nc2ccc(C(=O)O)cc2)s1.O=S(=O)(O)O` the “hERG current change (%, negative = inhibition) at 1uM” value was 8.71%.
With `O=C(Nc1ccc2c(c1)OCO2)N1CCN(C(=O)C2CCCO2)CC1` (centres unmarked) the “hERG current change (%, negative = inhibition) at 1uM” value was 1.36%.
`CS(=O)(=O)Nc1ccc(C2=NN(S(=O)(=O)c3ccccc3)C(c3cccs3)C2)cc1` (centres unmarked) was tested, and the “hERG current change (%, negative = inhibition) at 1uM” value was -21.7%.
With `O=S(Cc1cc(Oc2ccccc2)nc(-c2ccccc2)n1)c1ccccc1` (centres unmarked) the “hERG current change (%, negative = inhibition) at 1uM” value was 7.28%.
In the case of `Cc1ccc(C)c(OCC(=O)N/N=C/c2c(C)nn(-c3ccccc3)c2Cl)c1`, the “hERG current change (%, negative = inhibition) at 1uM” value was 16.7%.
For `COC(=O)C1=C(c2ccccc2OCc2ccccc2)C[C@@H]2CC[C@H]1N2C(=O)NCc1ccc(OC)cc1`, the “hERG current change (%, negative = inhibition) at 1uM” value was 14.2%.
`Cc1ccc(NC(=O)CNc2ccccc2N2CCCC2=O)cc1S(=O)(=O)N1CCCCC1` was tested, and the “hERG current change (%, negative = inhibition) at 1uM” value was -1.31%.
For `C=CCn1c(-c2cccn(Cc3cccc(Cl)c3)c2=O)n[nH]c1=S`, the “hERG current change (%, negative = inhibition) at 1uM” value was 8.73%.
`Cc1ccc(S(=O)(=O)N2CCOCC2)cc1NC(=O)COC(=O)C1COc2ccccc2O1` (centres unmarked) was tested, and the “hERG current change (%, negative = inhibition) at 1uM” value was 1.74%.
`CCn1c(=O)c(C(=O)NCc2ccc(Cl)cc2)c(O)c2ccccc21` was tested, and the “hERG current change (%, negative = inhibition) at 1uM” value was 20.3%.
With `CSCCC1NC2(C(=O)Nc3c(C)cc(Cl)cc32)[C@@H]2C(=O)N(C3CCCC3)C(=O)[C@H]12` (some centres unmarked) the “hERG current change (%, negative = inhibition) at 1uM” value was 5%.
With `COc1cccc2c(=O)cc(C)n(CC(=O)Nc3ccc(C)c(C)c3)c12` the “hERG current change (%, negative = inhibition) at 1uM” value was 10.8%.
In the case of `CS(=O)(=O)N(CC(=O)N1CCc2ccccc2C1)Cc1ccc(Cl)cc1`, the “hERG current change (%, negative = inhibition) at 1uM” value was 4.9%.
In the case of `Cc1onc(-c2ccccc2Cl)c1C(=O)Nc1cnn(Cc2ccccc2)c1`, the “hERG current change (%, negative = inhibition) at 1uM” value was -4.57%.
With `CC(=O)C1=C(C)N(Cc2ccccc2)C(=O)N[C@H]1c1cccc(C(F)(F)F)c1` the “hERG current change (%, negative = inhibition) at 1uM” value was 3.11%.
For `CC1(C)SC(=S)N(NC(=O)Nc2ccccc2)C1N(O)C(=O)Nc1ccccc1` (centres unmarked), the “hERG current change (%, negative = inhibition) at 1uM” value was 13.5%.
In the case of `COc1ccc(CCN)cc1OC`, the “hERG current change (%, negative = inhibition) at 1uM” value was 10.2%.
`Cc1ccc(O)c(CNc2nc3ccccc3n2C)c1` was tested, and the “hERG current change (%, negative = inhibition) at 1uM” value was 8.31%.
With `O=C(NCC(=O)N1CCC(Cc2ccccc2)CC1)c1ccc(Cl)cc1` the “hERG current change (%, negative = inhibition) at 1uM” value was -13.1%.
For `COc1ccccc1NC(=O)Cn1cc(C#N)c2ccccc21`, the “hERG current change (%, negative = inhibition) at 1uM” value was -12.2%.
